The values below come from PubChem BioAssay AID1508623 (National Center for Advancing Translational Sciences (NCATS), 2021).

Hit rate of the full screen: of about 48,000 compounds, about 450 (0.94%) were called active. Roughly 19% stayed inconclusive and do not appear here. Calls follow the shape of the dose curve; as a rule, active = well fitted inhibition curve with a large enough effect; inconclusive = small, poorly fitted or top-dose-only effect; inactive = no such curve, though single readings can be large or run the other way. The list shows a part of the results.
Potency is read from the fitted curve at half-maximal effect.

This experiment can be described thus: Primary qHTS for Identification of Small Molecule Inhibitors of Huntingtin Promoter Activity. Also: nearly all actives have a fitted effect of over 50% in size. The note with it: HEK293 HTT promoter firefly luciferase reporter (activity 0% = vehicle and -100% = no light), 24 h; series mostly up to 57.5 µM; activity change, negative = inhibition: at the top concentration. Summed up:
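HEK293 cells carrying firefly luciferase reporters were seeded at 2,500 per well in Opti-MEM and cultured for 24 h. They were then treated with compounds at up to 57.5 uM final for 24 h at 37 degrees C before Dual-Glo luminescence readout.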
(In qHTS, concentration-response curves come from the screen itself.)
As to `Cc1nc2ncnn2c(C)c1CCC(=O)NCc1cccc(Cl)c1`, the “activity change, negative = inhibition” value was inactive: -3.47%.
On the same count and under the same terms, the value for `Cc1ccc(NC(=O)c2cc(S(=O)(=O)N3CCCCC3)c[nH]2)cc1F` was inactive: -1.3%.
On the same count and under the same terms, next, `COc1ccc(C2C=C(c3ccccc3)Nc3nc(NC(=O)/C=C/c4ccc(Cl)cc4)nn32)cc1` (centres undefined): inactive: -20.4%.
As to `CCOC(=O)c1c(NC(=O)COc2ccc(Br)cc2)sc(C(C)=O)c1C`, the “activity change, negative = inhibition” value was inactive: -21.2%.
For the compound `CCCCc1nn2c(=O)cc(COC(=O)c3ccccc3NC(=O)c3cccc(C)c3)nc2s1`, the “activity change, negative = inhibition” value was inactive: -16.3%.
Same read-out and setting: the value for `Cc1cccc(NC(=O)c2c(C)oc3ncnc(N4CCCCC4)c23)c1C` was inactive: -15.9%; that for `CC(=O)Nc1cccc(-c2cn3cccnc3n2)c1` was inactive: -13.9%; that for `Cc1ccc(NC(=O)Cn2c(=O)n(Cc3ccccc3)c(=O)c3c2c2cc(C)ccc2n3C)cc1` was inactive: -13.5%.
The same measure, in the same setting: the value for `COc1ccc2nc(NC(=O)c3cc(=O)c4cc(C)c(C)cc4o3)sc2c1` was inactive: -24.4%; that for `CCOc1ccc(C(=O)c2c(N)c(-c3nc(-c4ccc(OCC)cc4)cs3)c3ccccn23)cc1` was inactive: -12.1%.
The same measure, in the same setting: next, `CCOC(=O)CSc1nc2c(sc3ccccc32)c(=O)n1Cc1ccc(OC)cc1`: inactive: -8.5%.
As to `Cc1cccc(NC(=O)c2sc(-n3nc(C)c(CCC(C)C)c3C)nc2C)c1`, the “activity change, negative = inhibition” value was inactive: -19.1%.
Same read-out and setting: the value for `COc1ccc(CCNc2nc3cc(OC)c(OC)cc3c3nc(-c4cccnc4)nn23)cc1OC` was inactive: -10.8%; that for `COc1ccc(OC)c(NC(=O)N2CCN(Cc3nc4ccc(C)cc4o3)CC2)c1` was inactive: -16.7%.
On the same count and under the same terms, the value for `COc1ccc(-c2cn3c(n2)sc2cc(C(=O)Nc4ccc(C)cc4C)ccc23)cc1` was inactive: 1.02%; that for `COc1cc2ccccc2cc1C(=O)Nc1ccc2oc(-c3cccc(C)c3)nc2c1` was inactive: 19.2%; that for `CCOc1ccc(NC(=O)CCSc2nc(-c3ccc4c(c3)OCO4)cc(C(F)(F)F)n2)cc1` was inactive: 3.84%.
The same measure, in the same setting: next, `Cc1cc(-n2nc3ccc(Cl)cc3n2)c(O)c(C(C)(C)C)c1`: inactive: -1.39%; `COc1ccc(-n2c3c(cc(-c4nc(-c5ccc(Cl)cc5)cs4)c2=O)C(=O)CC(C)(C)C3)cc1Cl`: inactive: -10.8%.
For `Cc1ccccc1NCc1nc2ccccc2n1CCOc1ccccc1`, the “activity change, negative = inhibition” value is inactive: 50.7%.
Still for that read-out and setting: the value for `CCN1C(=O)c2ccccc2Sc2ccc(NC(=O)c3ccc(C#N)cc3)cc21` was inactive: 3.96%; that for `O=C1NC(c2ccccc2)(c2ccccc2)C(=O)N1COP(=O)(O)O` was inactive: 7.64%; that for `CN(C(=O)Cn1nnc(-c2ccc(S(C)(=O)=O)cc2)n1)c1ccccc1` was inactive: -4.23%.
On the same count and under the same terms, next, `Cc1c(C(=O)N(C)C)sc2c1c(=O)n(-c1ccccc1C(F)(F)F)c(=O)n2Cc1cccc(F)c1`: inactive: -10.2%; `O[C@@H]1CO[C@H]2[C@@H]1OC[C@@H]2O`: inactive: 5.05%.
Same read-out and setting: next, `CCOC(=O)N1CCc2c(sc3c2c(=O)n(-c2ccc(F)cc2)c(=O)n3CC(=O)c2ccccc2)C1`: inactive: -6.23%; `Cc1cccc(CN2C(=O)c3ccccc3Sc3ccc(C(=O)NCc4cccs4)cc32)c1`: inactive: -18.6%; `O=C(NCCc1ccccc1)C1COc2ccccc2C1` (centres undefined): inactive: 20.3%.
Regarding `CCOC(=O)c1c(C)n(-c2ccccc2)c2ccc(OC(=O)c3cc(OC)cc(OC)c3)cc12`, the activity change, negative = inhibition is inactive: -9.83% [at 11.5 µM].
Turning to `CCc1ccc(NC(=O)c2cc(C)nn2-c2ccccc2)cc1`, the “activity change, negative = inhibition” value was inactive: -18.3%.
The same measure, in the same setting: the value for `Cc1cc(=O)n(CC(=O)NC(C)c2ccccc2)c2c1c(C)nn2C` (centres undefined) was inactive: -39.6%.
On the same count and under the same terms, next, `CCOC(=O)c1c(NC(=O)c2cc3ccccc3c(=O)o2)sc2c1CCC(C(C)(C)C)C2` (centres undefined): inactive: -6.11%.
On the same count and under the same terms, next, `CCOc1ccc(NC(=O)CCNS(=O)(=O)c2cccc3nsnc23)cc1`: inactive: -4.02%.
In the case of `CCc1cccc(C)c1NC(=O)C(CC)Sc1nncn2c1cc1occc12` (centres undefined), the “activity change, negative = inhibition” value is inactive: -23.7%.
Still for that read-out and setting: next, `CCC(=O)Nc1cc(-c2nc3ccccc3s2)c(Cl)cc1Cl`: inactive: -4.83%; `CCS(=O)(=O)N1CCc2cc(C(=O)Nc3cc(OC)c(Cl)cc3OC)ccc21`: inactive: -14.8%; `COc1ccc(NC(=O)c2oc3ccccc3c2NC(=O)COc2ccc(F)cc2)c(OC)c1`: inactive: -6.59%.
On the same count and under the same terms, the value for `CN1[C@H]2CC(OC(=O)[C@@H](CO)c3ccccc3)C[C@H]1[C@H]1O[C@H]12` (some centres undefined) was inactive: 2.9% [at 25.2 µM]; that for `O=C(c1ccc2c(c1)N(Cc1ccc(Cl)cc1)C(=O)c1ccccc1S2(=O)=O)N1CCc2ccccc21` was inactive: -23%; that for `CCC(C(=O)Nc1cccc(C#N)c1)n1nc(-c2ccccc2)ccc1=O` (centres undefined) was inactive: -26.4%.
On to `COC(=O)c1ccccc1NC(=O)CSc1nnc2cc(C)c3cc(C)cc(C)c3n12`, for which the “activity change, negative = inhibition” value was inactive: -21.5%.
On the same count and under the same terms, next, `Cc1ccc(NC(=O)CCCn2nc(C)c3sc4ccccc4c3c2=O)c(Cl)c1`: inactive: 4.51%; `O=C(NCc1ccc(F)cc1)C(=O)NCC(c1ccco1)S(=O)(=O)c1cccs1` (centres undefined): inactive: -22%.
Still for that read-out and setting: next, `O=C(Cn1ccc2cc(S(=O)(=O)N3CCCC3)ccc21)NCc1ccccc1Cl`: inactive: -2.72%.
Same read-out and setting: the value for `Cc1nnc(NCc2ccc(F)cc2)c2c1nnn2Cc1ccccc1Cl` was inactive: -5.18%.
`CCOc1ccc(NC(=O)CCn2nc(C)c(S(=O)(=O)N3CCCCC3)c2C)cc1`: the “activity change, negative = inhibition” value is inactive: -26%.
As for `COc1ccccc1N1CCN(S(=O)(=O)c2c(C)sc3ncn(CC(=O)NCCN(C)C)c(=O)c23)CC1`, the “activity change, negative = inhibition” value was inactive: 0.095%.
Regarding `COc1ccc(OC)c(NC(=O)CSC2=Nc3ccccc3C3=NC(CCC(=O)NCCc4ccccc4)C(=O)N23)c1` (centres undefined), the “activity change, negative = inhibition” value is inactive: -29.8%.
The same measure, in the same setting: next, `O=C(NCCC1=CCCCC1)c1ccc2c(c1)N(Cc1ccc(Cl)cc1)C(=O)c1ccccc1S2(=O)=O`: inactive: -10.6%; `CCc1ccc(N2C(=O)N(CC(=O)C(C)(C)C)c3ccccc3S2(=O)=O)cc1`: inactive: -12.8%; `Cc1c(Cl)cccc1NC(=O)Cn1cnc(S(=O)(=O)N2CCCC2)c1`: inactive: -15.9%.
In the case of `COc1ccc(CCNC(=O)Cn2nc(C)c3c(C)n(-c4ccc(C)cc4)nc3c2=O)c(OC)c1`, the Potency is active: 2.51 µM.
As for `COc1ccc(NC(=O)CC2C(=O)N(c3ccc(C)cc3)C(=O)N2Cc2ccc(C)cc2)cc1` (centres undefined), the “activity change, negative = inhibition” value is inactive: -17.1%.
As to `CCN(CC)CCCNC(=O)c1nn(-c2ccc(OC)cc2)c(=O)c2c1c1ccccc1n2C`, the “activity change, negative = inhibition” value is inactive: -8.42%.
Same read-out and setting: the value for `Nc1ccc(S(=O)(=O)NC2(C(F)(F)F)NC(=O)N(c3cccc(Cl)c3)C2=O)cc1` (centres undefined) was inactive: 1.47%; that for `COC(=O)c1cccc(CN2C(=O)SC(Nc3ccc(Cl)cc3)C2=O)c1` (centres undefined) was inactive: -17.8%; that for `CCOC(=O)c1noc2ncnc(Nc3cccc(C(F)(F)F)c3)c12` was inactive: -9.68%.
For the compound `CCCCOc1ccc(C(=O)Nc2nc3c(s2)CC(C)CC3)cc1` (centres undefined), the “activity change, negative = inhibition” value was inactive: -27.5%.
On the same count and under the same terms, next, `CC(=O)Nc1ccc(NC(=O)CCc2c(C)nc3c(c(C)nn3-c3ccccc3)c2C)cc1`: inactive: 8.21%.
Still for that read-out and setting: next, `COCCNC(=O)c1ccc2c(c1)N(Cc1c(F)cccc1Cl)C(=O)c1ccccc1S2`: inactive: -25.3%; `CCOC(=O)c1c(C)oc2nc(C)nc(NCc3ccc(OC)cc3)c12`: inactive: 6.71%.
The same measure, in the same setting: next, `Cc1cnc2c(c1SCC(=O)NCc1ccccc1Cl)c(=O)n(C)c(=O)n2C`: inactive: -6.96%.
As to `CC(C)(Oc1ccc(Cl)cc1)C(=O)Nc1nnc2n1CCS2`, the “activity change, negative = inhibition” value was inactive: -10%.
Still for that read-out and setting: the value for `CCCCNC(=O)CC1N=C2c3ccccc3N=C(SCC(=O)NCc3ccccc3Cl)N2C1=O` (centres undefined) was inactive: -7.86%.
The same measure, in the same setting: the value for `COc1cccc(C(=O)Nc2cccc(OCc3cc(=O)n4cccc(C)c4n3)c2)c1` was inactive: -2.72%; that for `Cc1ccc(NC(=O)CCC(=O)N2CCSc3ccccc32)cc1` was inactive: -13.2%; that for `Clc1ccc(-c2noc(-c3cccnc3N3CCN(c4ccccc4)CC3)n2)cc1` was inactive: 2.48%.
Still for that read-out and setting: next, `CCOc1ccc(NC(=O)Cn2cc(C(=O)c3ccccc3)c(=O)c3cc4c(cc32)OCCO4)cc1`: inactive: -8.28%; `Cc1ccn2c(Nc3ccccc3C)c(-c3cccnc3)nc2c1`: inactive: -18.7%.
On to `CCOc1ccc(CCNC(=O)C2CCN(Cc3nc(-c4ccccc4C)oc3C)CC2)cc1OCC`, for which the “activity change, negative = inhibition” value is inactive: -4.74%.
The same measure, in the same setting: the value for `O=C(CC(NCc1cccnc1)C(=O)O)Nc1ccc(O)cc1` (centres undefined) was inactive: -22.4%; that for `CCN(C(=O)CSc1nc2ccccc2n1CC(=O)N1CCCC(C)C1)c1ccccc1` (centres undefined) was inactive: -22.4%.
On to `Fc1ccc(Nc2c(-c3ccco3)nc3ccccn23)cc1`, for which the “activity change, negative = inhibition” value was inactive: -37.3%.
`Cn1c(=O)c(=O)n(C)c2cc(S(=O)(=O)Nc3ccc(Cl)c(C(F)(F)F)c3)ccc21`: the “activity change, negative = inhibition” value is inactive: -27.9%.
On the same count and under the same terms, next, `CC(C)(C)c1ccc(C(=O)N2CCN(Cc3cc(=O)n4nc(-c5ccccc5F)sc4n3)CC2)cc1`: inactive: -2.58%; `Cc1ccc(NC(=O)C2CCC(CNS(=O)(=O)c3ccc4c(c3)C(C)(C)C(=O)N4C)CC2)cc1` (centres undefined): inactive: -25.6%; `CCOc1ccc(CNC(=O)Cc2ccc(NC(=O)N3CCCCc4ccccc43)cc2)cc1OC`: inactive: -27.3%.
On the same count and under the same terms, next, `COc1cc(OC)c(NC(=O)Cn2cnc3nc4c(cc3c2=O)CCCC4)cc1Cl`: inactive: -23.2%; `Cc1cc(=O)oc2cc(OCC(=O)Nc3c(C(C)C)cccc3C(C)C)ccc12`: inactive: -1.56%; `COc1cc(NC(=O)CCNC(=O)Cn2cnc3ccccc3c2=O)cc(OC)c1OC`: inactive: -7.53% [at 11.5 µM].
Still for that read-out and setting: next, `COc1ccc(CCn2c(=O)c3cccnc3n(CC(=O)Nc3c(C)cc(C)cc3C)c2=O)cc1OC`: inactive: 8.73%; `Cc1cc(C)c(NC(=O)Nc2csc3c2CCCC3)c(C)c1`: inactive: -3.74%; `O=C(CCCCCn1c(=O)[nH]c2ccccc2c1=O)NCc1ccc(Cl)cc1`: inactive: -3.25%.
Regarding `CCC(=O)N1CCc2cc(Br)cc(S(=O)(=O)NCc3ccccc3)c21`, the “activity change, negative = inhibition” value was inactive: -9.12%.
On the same count and under the same terms, next, `O=C(O)c1cc(=O)c2c(OCC(O)COc3cccc4oc(C(=O)O)cc(=O)c34)cccc2o1`: “inactive”; `CSc1ccc(CCNC(=O)C2CCN(c3ncnc4c3nc3n4CCCCC3)CC2)cc1`: inactive: -3.46%.
On the same count and under the same terms, the value for `CCN(CC)C(=O)COc1ccc(-c2nnc(Nc3ccc(OC)c(C(=O)NC)c3)c3ccccc23)cc1` was inactive: 1.72%; that for `Cc1sc2ncn(CC(=O)N(C)c3cccc(C(F)(F)F)c3)c(=O)c2c1S(=O)(=O)N1CCN(c2ncccn2)CC1` was inactive: -14.6%; that for `Fc1ccc(-n2ncc3c(N4CCN(c5ccccc5F)CC4)ncnc32)cc1` was inactive: -25.4%.
Same read-out and setting: next, `Cc1cc(=O)oc2c3c(ccc12)OCN(Cc1ccc(Cl)cc1)C3`: inactive: -11.4%; `CCn1nc(C)c2c(-c3ccccc3)cc(=O)n(C(C)C(=O)NCCc3ccccc3)c21` (centres undefined): inactive: -14.3%; `COc1cccc(-c2nnc3sc(CN4CCCCC4)cn23)c1`: inactive: 0%.
On to `CCC1CCCCN1C(=O)Cn1c(=O)n(CCCCCC(=O)NCc2ccccc2Cl)c(=O)c2sccc21` (centres undefined), for which the “activity change, negative = inhibition” value is inactive: -6.59%.
Still for that read-out and setting: next, `O=C(NCCc1ccc(Cl)cc1)c1ccc2c(c1)N(Cc1cccc(Cl)c1)C(=O)c1ccccc1S2(=O)=O`: inactive: -28.6%.
